# Test results published in PubChem BioAssay AID1259418 (Broad Institute, 2018).
# In all, about 3,400 compounds went through this assay and about 840 (25%) were called active. This list was built around the results that the source calls inconclusive (neither active nor inactive); the mix of calls is not that of the screen.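 The calls were made as follows: active = fitted half-maximal concentration of signal decrease at or below twice the sample's top tested concentration; inconclusive = flat curve between -70 and -30 percent, or poor fit; inactive = flat within 30 percent, signal rise, or potency above limit.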
# Assay: T. gondii growth inhibition with IFN-gamma, dose response, cell-based, ME49Luc, HeLa, luciferase, 72 h (AID 1259418)
# Details: T. gondii ME49Luc in IFN-y HeLa, active compounds read low, -100% = high-dose IFN-γ control wells; at 19.5 µM unless noted
row,Compound,max activity
1,O=C(CCC1N=C2c3ccccc3N=C(SCc3cccc(F)c3)N2C1=O)NCc1ccc(F)cc1 (stereo not given),inconclusive: -20.6%
2,CCOC(=O)c1cccc(NC(=O)Nc2ccc(-c3nc(-c4cc(C)ccc4C)co3)cc2)c1,inconclusive: -38.6% [at 2.6 µM]
3,O=C(Cc1ccccc1)N1CCC2(CC1)Nc1ccc(Cl)cc1-n1cccc12,inconclusive: -33.6% [at 0.16 µM]
4,OC[C@H]1[C@H](c2ccc(C#Cc3ccccc3F)cc2)[C@H]2CN(CC3CCOCC3)CCCCN21,inconclusive: -41.2%
5,CCCCNC(=O)CCC1N=C2c3ccccc3N=C(SCc3cccc(F)c3)N2C1=O (stereo not given),inconclusive: 32.6% [at 1.35 µM]
6,COC(=O)c1ccccc1NC(=O)N1CCN(Cc2nc(-c3ccc(C)cc3)oc2C)CC1,inconclusive: -50.7%
7,CCc1ccc2c(c1)cc(S(=O)(=O)c1ccccc1)c(=O)n2CC(=O)NCCCOC,inactive: 8.62% [at 10 µM]
8,Cc1ccc(S(=O)(=O)N2CCC3(CC2)NCCN=C3NCc2ccc(C(F)(F)F)cc2)c(C)c1,inconclusive: 34.8%
9,CCCc1ccc(S(=O)(=O)N2CCC(C(=O)NCCc3csc(-c4ccccc4)n3)CC2)cc1,inconclusive: -69.2%
10,Cc1ccc(CC(=O)N2CCC3(CC2)Nc2cc(F)ccc2-n2cccc23)cc1,inactive: -4.79% [at 0.35 µM]
11,Cc1ccc(OCC(=O)Nc2ccc(-c3nc(-c4ccc(C)cc4C)co3)cc2)cc1,inconclusive: -33.8%
12,CN(c1ccccc1)c1ccc2ccc(C(=O)N3CCCC3)cn12,inconclusive: 26.3% [at 10 µM]
13,N#C[C@H]1[C@H](c2ccc(C#Cc3ccccc3F)cc2)[C@@H](CO)N1C(=O)c1cccnc1,inactive: -13.1% [at 2.35 µM]
14,COc1ccc2c(c1)NC1(CCN(C(=O)c3ccc(OC)c(OC)c3)CC1)c1cccn1-2,inconclusive: -32.3% [at 0.68 µM]
15,Cc1ccc2c(c1)cc(S(=O)(=O)c1ccccc1)c(=O)n2CC(=O)NC1CCCCC1,inconclusive: -56.1% [at 0.68 µM]
16,CC(=O)Nc1ccc(-c2nc(-c3cc(C)ccc3C)co2)cc1,inconclusive: 147%
17,O=C(NCCc1csc(-c2ccccc2)n1)[C@H]1CSCN1S(=O)(=O)c1cccs1,inconclusive: -49%
18,Cn1cnc(S(=O)(=O)N2C[C@@H]3N[C@H](C2)C3c2ccc(-c3ccccc3F)cc2)c1 (stereo not given in full),inconclusive: 7.1% [at 5 µM]
19,O=C(CCC1N=C2c3ccccc3N=C(SCc3cc(=O)n4ccccc4n3)N2C1=O)NC1CCCCC1 (stereo not given),inconclusive: -23.9% [at 0.35 µM]
20,CCOC(=O)C(=O)Nc1ccc(-c2nc(-c3cc(C)ccc3C)co2)cc1,inactive: 15.3% [at 0.16 µM]
21,Cc1ccc(Nc2ncnc3c2cnn3-c2cccc(C)c2)cc1,inconclusive: 120% [at 10 µM]
22,Cc1ccccc1-c1ccc([C@H]2[C@@H](CO)N3CCCCN(S(=O)(=O)Cc4ccccc4)C[C@@H]23)cc1,inconclusive: -58.6%
23,O=C(Cc1ccccn1)N1CC(=O)N2[C@@H](CO)[C@H](c3ccc(C#CCC4CCCC4)cc3)[C@@H]2C1,inconclusive: -60.2%
24,Cn1nnc2c(NCCn3ccc4ccccc43)ncnc21,inconclusive: -52.7%
25,COc1cccc(C#Cc2ccc([C@@H]3[C@@H](C#N)N(C(=O)c4ccccn4)[C@H]3CO)cc2)c1,inconclusive: -48%

row,Compound,max activity
1,COc1ccc(-c2ccc([C@H]3[C@H](CO)N4C(=O)CN(Cc5ccccc5)C[C@@H]34)cc2)cc1,inconclusive: 17.2% [at 10 µM]
2,CN(C)C(=O)CN1C[C@@H]2CCN(C(=O)Nc3ccccc3Cl)CC[C@H]2S1(=O)=O,inconclusive: -50% [at 2.6 µM]
3,O=C(Nc1ccc(-c2nc(-c3ccccc3)co2)cc1)c1ccccc1F,inactive: -7.4% [at 10 µM]
4,Cc1ccc(-c2nc(CSc3nc4c(c(=O)[nH]3)CN(C(C)C)CC4)c(C)o2)cc1,inactive: -15.7%
5,COc1ccccc1-c1nc(Cn2nnc(-c3nc(-c4ccccc4C)no3)c2C)c(C)o1,inactive: 11.1% [at 0.16 µM]
6,Fc1ccc(CSc2nc(NCc3ccccc3)c3ccccc3n2)cc1,inconclusive: 42.9%
7,O=C(CC1N=C2c3ccccc3N=C(SCc3ccc(F)cc3)N2C1=O)NCc1ccc2c(c1)OCO2 (stereo not given),inconclusive: -57%
8,CCOc1ccc(CCNc2nc(-c3ccc(OC)cc3)nc3ccccc23)cc1OCC,inconclusive: -29.2% [at 10 µM]
9,CN(C)C(=O)c1cccc(-c2ccc(C3[C@H]4CNC[C@@H]3N4Cc3ccccc3C(F)(F)F)cc2)c1 (stereo not given in full),inconclusive: -33.3%
10,Cc1ccc2c(c1C)-n1cccc1C1(CCN(C(=O)CC3CCCC3)CC1)N2,inconclusive: -27.7% [at 10 µM]
11,COc1cccc(-c2nc3c(s2)CN(S(=O)(=O)c2cc(C)c(C)cc2C)CC3)c1,inconclusive: -26.7% [at 0.16 µM]
12,COc1cccc(-c2nc3c(s2)CN(S(=O)(=O)c2cccc(F)c2)CC3)c1,inconclusive: 71.6%
13,Fc1ccccc1-c1ccc(C2[C@H]3CNC[C@@H]2N3CC2CC2)cc1 (stereo not given in full),inconclusive: 26.7% [at 5 µM]
14,CCCCNC(=O)CCC1N=C2c3ccccc3N=C(SCc3ccccc3F)N2C1=O (stereo not given),inactive: -6.88% [at 2.6 µM]
15,CCc1nc(OCC(=O)Nc2ccccc2CC)c2ccccc2n1,inactive: 28.5%
16,Clc1ccccc1CSc1nc(NC2CCCCC2)c2ccccc2n1,inactive: 13.8%
17,Cc1ccc(CSc2ccc(-c3sc(-c4ccc(F)cc4)nc3C)nn2)cc1,inactive: 12.3% [at 0.16 µM]
18,COc1cccc(-c2ccc(C3[C@H]4CNC[C@@H]3N4CC3CCCCC3)cc2)c1 (stereo not given in full),inactive: 25.6% [at 10 µM]
19,Clc1ccc(CN2CCC3(COCc4cnc(-c5ccccc5)nc43)C2)cc1 (stereo not given),inconclusive: -65.6%
20,CN1c2ccc(C3=CCCCC3)cc2[C@@H]2[C@@H](CCN2C(=O)c2ccccc2F)[C@@H]1CO,inconclusive: -47.8% [at 1.35 µM]
21,O=S(=O)(c1ccccc1)N1CCCCN2[C@H](CO)[C@@H](c3ccc(C#CC4CCCC4)cc3)[C@H]2C1,inconclusive: -48.3%
22,O=C(Nc1ccc(-c2nc(-c3ccccc3)co2)cc1)Nc1ccccc1C(F)(F)F,inconclusive: 89.2% [at 5 µM]
23,O=C(NCc1cncc2c1CCN(Cc1cccc(F)c1)C2)C1CC1,inactive: 11.5%
24,CCOc1ccc(NC(=O)COc2nc(CC)nc3ccccc23)cc1,inactive: 16% [at 10 µM]
25,CC(C)c1ccc(S(=O)(=O)N2CCC3(CC2)NCCN=C3NCc2ccc(Cl)cc2)cc1,inconclusive: -27.1%
